# Measurements published in publication PMC12280212.
# What was measured:
# [1] = biological target: Peptidyl-prolyl cis-trans isomerase A (UniProt P62937); test: cross-linking mass spectrometry
# [2] = biological target: Calreticulin (UniProt P27797); test: cross-link between two proteins; cross-linking mass spectrometry
# Chain of UniProt P27797 (P27797 whole entry): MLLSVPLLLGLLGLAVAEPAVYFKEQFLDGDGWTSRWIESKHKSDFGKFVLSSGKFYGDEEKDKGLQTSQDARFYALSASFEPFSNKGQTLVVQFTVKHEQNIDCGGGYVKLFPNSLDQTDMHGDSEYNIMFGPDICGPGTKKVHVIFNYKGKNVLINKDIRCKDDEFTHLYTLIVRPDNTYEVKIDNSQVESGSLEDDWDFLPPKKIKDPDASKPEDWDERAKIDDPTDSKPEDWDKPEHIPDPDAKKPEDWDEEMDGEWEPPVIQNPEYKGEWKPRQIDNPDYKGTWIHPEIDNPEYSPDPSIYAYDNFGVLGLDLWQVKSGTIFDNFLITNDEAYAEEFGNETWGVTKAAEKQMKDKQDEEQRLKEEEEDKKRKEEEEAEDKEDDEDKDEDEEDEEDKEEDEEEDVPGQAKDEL
# Chain of Integrin beta-1 (chain, as listed by the source): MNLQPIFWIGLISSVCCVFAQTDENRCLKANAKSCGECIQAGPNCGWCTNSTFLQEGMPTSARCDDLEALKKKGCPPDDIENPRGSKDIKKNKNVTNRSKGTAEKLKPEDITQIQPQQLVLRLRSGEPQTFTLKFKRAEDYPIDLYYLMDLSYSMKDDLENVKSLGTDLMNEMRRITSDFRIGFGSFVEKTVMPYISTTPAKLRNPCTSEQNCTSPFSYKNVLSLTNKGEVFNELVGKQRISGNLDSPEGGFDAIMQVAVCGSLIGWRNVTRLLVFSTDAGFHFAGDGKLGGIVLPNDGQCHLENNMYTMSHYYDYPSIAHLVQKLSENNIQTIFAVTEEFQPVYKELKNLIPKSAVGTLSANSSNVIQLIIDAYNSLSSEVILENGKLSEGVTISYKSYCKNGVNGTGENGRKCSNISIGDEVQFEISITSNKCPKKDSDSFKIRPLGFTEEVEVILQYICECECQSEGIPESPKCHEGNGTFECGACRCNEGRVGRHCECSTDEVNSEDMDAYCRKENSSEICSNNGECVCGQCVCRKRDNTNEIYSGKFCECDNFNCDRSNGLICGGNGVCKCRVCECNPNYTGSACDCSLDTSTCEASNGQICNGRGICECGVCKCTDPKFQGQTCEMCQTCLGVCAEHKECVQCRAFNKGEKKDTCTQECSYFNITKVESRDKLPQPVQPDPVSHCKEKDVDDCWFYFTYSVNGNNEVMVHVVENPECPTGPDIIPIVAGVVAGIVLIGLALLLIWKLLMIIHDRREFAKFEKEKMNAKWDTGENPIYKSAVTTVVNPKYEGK
# Chain of Alpha-enolase (chain, as listed by the source): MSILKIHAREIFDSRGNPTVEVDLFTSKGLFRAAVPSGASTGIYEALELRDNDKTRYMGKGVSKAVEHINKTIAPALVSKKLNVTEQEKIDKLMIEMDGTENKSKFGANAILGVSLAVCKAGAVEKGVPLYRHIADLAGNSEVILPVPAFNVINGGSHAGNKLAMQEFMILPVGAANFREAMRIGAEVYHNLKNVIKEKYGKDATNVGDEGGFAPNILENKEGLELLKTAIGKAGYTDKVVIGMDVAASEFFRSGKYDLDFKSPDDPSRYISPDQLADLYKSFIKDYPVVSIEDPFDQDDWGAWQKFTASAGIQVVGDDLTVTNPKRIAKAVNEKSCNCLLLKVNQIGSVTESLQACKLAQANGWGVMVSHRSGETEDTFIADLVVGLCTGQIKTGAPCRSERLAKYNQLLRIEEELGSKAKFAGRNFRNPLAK
# Chain of UniProt P62937 (P62937 whole entry): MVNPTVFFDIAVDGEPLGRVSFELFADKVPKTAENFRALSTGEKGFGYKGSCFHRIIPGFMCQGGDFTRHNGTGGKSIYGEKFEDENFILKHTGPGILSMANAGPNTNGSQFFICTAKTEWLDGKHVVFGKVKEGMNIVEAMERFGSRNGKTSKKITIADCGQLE
Substance,listed as a hit [1],listed as a hit [2]
Alpha-enolase,yes,–
Integrin beta-1,–,yes
